Test results published in EP1595536A1, “PHARMACEUTICALS COMPRISING SHIKONINS AS ACTIVE CONSTITUENT” (Beijing JBC Chinese Traditional Medicine Science and …, priority 2003, dated 2004).

Tested on: mouse's splenic cell and NK cell
Test: Mouse model of low immunologic function caused by mitomycin C
Conditions: 6mg/kg injected in the abdominal cavity for 5 days, P<0.001

`CC(C)=CCC(OC(=O)C=C(C)C)C1=CC(=O)c2c(O)ccc(O)c2C1=O` (stereo not shown) was tested, and the “increase of cell toxicant in the mouse's splenic cell and NK cell” value was “around 20%”.
